Here are results for 40 compounds from the antibiotic and cytotoxicity screens of Wong et al. (2023).

Some of the results follow.

This assay has as its system HepG2. In words: cytotoxicity call (relative viability < 0.9). To be noted: 10 µM.
With `C[C@@H]1CN([C@@H](C)CO)C(=O)c2cc(NC(=O)CCN3CCOCC3)ccc2O[C@@H]1CN(C)CC1CC1`, the cytotoxicity call is “inactive”.
The entry for `NNC(=O)c1c(O)c2c([nH]c1=O)CCCC2` is “inactive”; for `CCCCCCCCCCCCCCCCOP(=O)([O-])OCC[N+](C)(C)C` it is “inactive”.
On to `Cc1ccc(S(=O)(=O)N(C)C[C@@H]2OCCCC[C@H](C)Oc3ccc(NC(=O)Cc4ccccc4)cc3C(=O)N([C@@H](C)CO)C[C@H]2C)cc1`, for which the cytotoxicity call is “inactive”.
`CC(C)(O)C#Cc1ccc([C@@H]2[C@@H](CO)N3CCCCN(S(C)(=O)=O)C[C@@H]23)cc1`: the cytotoxicity call is “inactive”.
As to `COc1ccc(CN(C)C[C@@H]2Oc3c(NC(=O)Nc4ccc(C(F)(F)F)cc4)cccc3C(=O)N([C@H](C)CO)C[C@@H]2C)cc1`, the cytotoxicity call was “inactive”.
As to `Cc1cc(O)c2c(c1)Cc1cccc(O)c1C2=O`, the cytotoxicity call is “inactive”.
Take `NCC[C@@H]1CC[C@@H](NC(=O)Nc2ccc(F)cc2)[C@H](CO)O1`: the cytotoxicity call was “inactive”.
The entry for `C[C@H]1CCCCO[C@@H](CN(C)C(=O)Nc2cccc3ccccc23)[C@@H](C)CN([C@@H](C)CO)C(=O)c2cc(NS(=O)(=O)c3ccc(F)cc3)ccc2O1` is “inactive”; for `COc1ccccc1C#Cc1ccc2c(c1)O[C@H](CN(C)C(C)=O)[C@@H](C)CN([C@@H](C)CO)S2(=O)=O` it is “inactive”; for `C[C@H]1CCCCO[C@H](CN(C)C(=O)c2ccccc2)[C@@H](C)CN([C@@H](C)CO)C(=O)c2cc(NC(=O)C3CCCCC3)ccc2O1` it is “inactive”.
Take `Cc1ccc(S(=O)(=O)N2C[C@@H](O)COC[C@H]3O[C@H](CC(=O)NCCN4CCCCC4)CC[C@@H]32)cc1`: the cytotoxicity call is “inactive”.
For `C[C@@H]1CN([C@@H](C)CO)C(=O)c2cccc(NC(=O)c3cnccn3)c2O[C@H]1CN(C)S(=O)(=O)c1ccccc1`, the cytotoxicity call is “inactive”.
Regarding `COc1ccc(NC(=O)Nc2ccc3c(c2)CC(=O)N([C@@H](C)CO)C[C@@H](C)[C@H](CN(C)CC2CCCCC2)O3)cc1`, the cytotoxicity call is “active”.
Regarding `C[C@@H]1CN([C@@H](C)CO)C(=O)c2cc(NS(=O)(=O)c3cn(C)cn3)ccc2O[C@@H]1CN(C)S(=O)(=O)c1cn(C)cn1`, the cytotoxicity call is “inactive”.
Next, `C[C@@H]1CN([C@H](C)CO)C(=O)c2cc(NC(=O)CCCN(C)C)ccc2O[C@@H]1CN(C)S(=O)(=O)c1ccc(F)cc1`: “inactive”; `Cc1cc2nc(C(=O)NC[C@H]3CCCS(=O)(=O)C3)cc(-c3ccccc3Cl)c2c(C)c1-c1ccncc1`: “inactive”.
Consider `C[C@H]1CN([C@@H](C)CO)C(=O)c2cc(Br)cnc2O[C@@H]1CN(C)S(C)(=O)=O`, for which the cytotoxicity call is “inactive”.
Next, `COC[C@@H](C)Nc1ncnc2nc[nH]c12`: “inactive”; `COc1cccc(NC(=O)N2C[C@@H](O)COC[C@H]3O[C@H](CC(=O)NCCCN4CCOCC4)CC[C@@H]32)c1`: “inactive”; `COc1c(N2CCNC(C)C2)c(F)cc2c(=O)c(C(=O)O)cn(C3CC3)c12` (stereo not given): “active”.
Consider `COc1ccccc1OCC(O)CN1CCN(CC(=O)Nc2c(C)cccc2C)CC1.Cl.Cl` (stereo not given), for which the cytotoxicity call was “inactive”.
Next, `C[C@H]1CN([C@@H](C)CO)C(=O)c2cc(NC(=O)Cc3cn(C)c4ccccc34)ccc2O[C@@H]1CN(C)S(=O)(=O)c1cn(C)cn1`: “inactive”.
With `CC(C)CCN1CCc2nnc(CO)n2CC1`, the cytotoxicity call was “inactive”.
Turning to `COc1ccc(NC(=O)N(C)C[C@@H]2Oc3c(NS(=O)(=O)c4cn(C)cn4)cccc3C(=O)N([C@@H](C)CO)C[C@H]2C)cc1`, the cytotoxicity call was “inactive”.
Take `C[C@H]1CN([C@@H](C)CO)C(=O)c2cccc(NC(=O)Nc3ccc(F)cc3)c2O[C@@H]1CN(C)Cc1ccc(C(=O)Nc2ccccc2N)cc1`: the cytotoxicity call is “inactive”.
As to `CO[C@@H](CN(C)C(=O)c1ccccc1F)[C@@H](C)CN([C@H](C)CO)S(=O)(=O)c1ccc(Cl)cc1`, the cytotoxicity call is “inactive”.
As for `C[C@@H]1CN([C@H](C)CO)C(=O)c2cc(NS(=O)(=O)c3ccc(F)cc3)ccc2O[C@@H](C)CCCCO[C@@H]1CN(C)C(=O)CCC(F)(F)F`, the cytotoxicity call is “inactive”.
In the case of `COc1ccc(NC(=O)Nc2cccc3c2O[C@H](CN(C)Cc2ccc(Cl)c(Cl)c2)[C@H](C)CN([C@H](C)CO)C3=O)cc1`, the cytotoxicity call was “inactive”.
Take `C[C@@H]1CCCCO[C@H](CN(C)Cc2ccccc2)[C@@H](C)CN([C@@H](C)CO)C(=O)c2cc(NS(=O)(=O)c3ccccc3)ccc2O1`: the cytotoxicity call is “inactive”.
Regarding `Cc1cc(N)n2ncnc2n1`, the cytotoxicity call was “inactive”.
On to `Cn1ccnc1CN1CC[C@]2(COCCN(S(C)(=O)=O)C2)C1`, for which the cytotoxicity call was “inactive”.
`C[C@@H]1CN([C@@H](C)CO)C(=O)c2cc(NC(=O)Nc3cccc4ccccc34)ccc2O[C@@H]1CN(C)C(=O)Nc1ccc(F)cc1`: the cytotoxicity call is “inactive”.
With `C[C@@H]1CN([C@H](C)CO)C(=O)c2cc(NC(=O)Nc3cccc4ccccc34)ccc2O[C@H]1CN(C)Cc1ccc(-c2ccccc2)cc1`, the cytotoxicity call was “active”.
The entry for `CCc1ccc(Nc2c3c(nc4ccccc24)CCC3)cc1` is “active”; for `Cc1noc(C)c1NC(=O)Nc1ccc2c(c1)C(=O)N([C@@H](C)CO)C[C@H](C)[C@@H](CN(C)Cc1ccncc1)OCCCC[C@H](C)O2` it is “inactive”; for `C[C@H]1CN([C@@H](C)CO)C(=O)Cc2cc(NC(=O)Nc3cccc4ccccc34)ccc2O[C@H]1CN(C)C(=O)Nc1ccc(C(F)(F)F)cc1` it is “inactive”.
Next, `C[C@@H]1CCCCO[C@H](CN(C)C(=O)Cc2ccccc2)[C@@H](C)CN([C@H](C)CO)C(=O)c2cc(NC(=O)Cc3ccccc3)ccc2O1`: “inactive”; `C[C@@H]1CCCCO[C@H](CN(C)S(=O)(=O)c2cccs2)[C@@H](C)CN([C@H](C)CO)C(=O)c2cc(NC(=O)Nc3cccc4ccccc34)ccc2O1`: “inactive”; `C[C@H]1CN([C@@H](C)CO)C(=O)CCCn2nncc2CO[C@H]1CN(C)S(=O)(=O)c1cn(C)cn1`: “inactive”.
